# Data as given in PubChem BioAssay AID602310 (National Center for Advancing Translational Sciences (NCATS), 2012).
# Values joined by “and” are separate entries in the source; they are usually repeats but may differ in a detail not shown here. Identical values can stand only once. The whole screen tested about 410,000 compounds, of which about 310 (0.076%) were called active. Inconclusive means that the source gave no clear call. Such entries were picked first, then a sample of the others. The call rests on the fitted dose curve; in most records, active means well fitted curve in the direction sought with a large enough effect; inconclusive means small, poorly fitted or top-dose-only effect; inactive means flat fitted curve, though single readings scatter. Where the call is inconclusive, the potency comes from a doubtful curve fit.
# Target: DNA dC->dU-editing enzyme APOBEC-3G (Homo sapiens) (UniProt Q9HC16)
# Experiment: qHTS for Inhibitors of Vif-A3G Interactions: qHTS; further: nearly all actives have a fitted effect of over 60% in size;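 on activity, negative = active: hits raise eYFP signal because A3G escapes Vif-driven loss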
# Conditions: HeLa A3G-eYFP + Vif (tagged APOBEC3G with the HIV-1 protein that degrades it), YFP fluorescence, overnight; series mostly up to 46.1 µM; activity, negative = active: at the top concentration
# Procedure, shortened: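 HeLa cells stably expressing Vif and C-terminally eYFP-tagged A3G, seeded overnight at 37 deg C, then exposed to compound by pintool overnight at 37 deg C. Rise in yellow fluorescence (Ex 488/Em 500-530, Acumen) marks blocked Vif-driven A3G degradation.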
# On the % scale 0 is the no-effect control and ±100 the full control effect; potency means the concentration at half of the fitted maximal effect; tags describe the fitted curve by direction and shape.
# UniProt Q9HC16, sequence (Q9HC16 whole entry, looked up): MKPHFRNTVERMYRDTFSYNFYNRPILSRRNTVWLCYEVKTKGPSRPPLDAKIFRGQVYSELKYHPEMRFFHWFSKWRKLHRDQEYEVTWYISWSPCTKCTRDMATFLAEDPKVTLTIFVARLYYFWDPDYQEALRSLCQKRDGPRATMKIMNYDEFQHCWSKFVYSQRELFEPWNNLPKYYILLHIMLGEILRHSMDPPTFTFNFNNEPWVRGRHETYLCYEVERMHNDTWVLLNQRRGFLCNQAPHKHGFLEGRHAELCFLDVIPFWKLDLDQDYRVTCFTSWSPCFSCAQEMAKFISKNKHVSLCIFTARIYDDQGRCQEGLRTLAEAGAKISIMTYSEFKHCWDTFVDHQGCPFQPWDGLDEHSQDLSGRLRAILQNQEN
SMILES,Potency,"activity, negative = active"
C/C=N\NC(=O)COc1cc(C)ccc1C,"inconclusive: 35.5 µM [inhibitor, single point]",
N#Cc1c(C(F)(F)F)cc(-c2ccccc2)nc1SCC(=O)Nc1sc2c(c1C#N)CCC2,"inconclusive: 3.55 µM [inhibitor, partial curve, poor fit]",
CC(C)Oc1ccc(CNC(=S)N/N=C/c2cccnc2)cc1,"inconclusive: 20 µM [inhibitor, single point]",
O=C(C[n+]1cccc2cccc(O)c21)c1ccc(F)cc1,,inactive: -4.9%
CCCN1CCN(CCCNC(=O)c2ccc3c(c2)sc2nc(-c4ccc(C)cc4)cn23)CC1,"inconclusive: 35.5 µM [inhibitor, single point]",
Cc1ccc(NC(=O)C(OC(=O)c2cc(C)oc2C)c2ccccc2)cc1 (configuration not stated),,inactive: -0.527%
Cc1cccc2c1-c1sc(C(=O)NCCc3ccc(Cl)cc3)cc1CO2,"inconclusive: 8.91 µM [inhibitor, partial curve, poor fit]",
O=C(CBr)c1ccc([N+](=O)[O-])c(CS(=O)(=O)c2ccc(Cl)cc2)c1,"inconclusive: 35.5 µM [inhibitor, single point]",
O=C(c1ccc([N+](=O)[O-])s1)N1CCCc2ccccc21,"inconclusive: 35.5 µM [inhibitor, partial curve, poor fit]",
CCN(CC)c1ccc(/C=C/c2ccnc3ccccc23)cc1,active: 11.2 µM,
COc1ccc(NC(=O)c2ccc3c(c2)c(C)c(C)n3Cc2ccc(F)cc2)cc1,"inconclusive: 3.55 µM [inhibitor, full curve]",
CC1CN(CCc2ccccc2)c2nc3c(c(=O)[nH]c(=O)n3C)n2C1 (configuration not stated),"inconclusive: 25.1 µM [inhibitor, single point]",
COc1ccc(C(=O)c2ccc(OC)cc2OC)cc1,"inconclusive: 4.47 µM [inhibitor, partial curve]",
Cc1ccc(C)c(N=Nc2nc3ccccc3n2C)c1,"inconclusive: 10 µM [inhibitor, partial curve]",
CCOC(=O)C1=C(N)Oc2cc(O)ccc2C1c1ccccc1 (configuration not stated),"inconclusive: 17.8 µM [inhibitor, single point]",
N#Cc1c(-c2ccccc2)cc(-c2ccccc2)nc1SCC(=O)NCC(=O)O,,inactive: 0.0933%
CC1=CC(C)(C)N2C(=O)C(=Nc3ccc(O)cc3)c3cccc1c32,"inconclusive: 25.1 µM [inhibitor, single point]",
O=C(c1ccccn1)C1CCCN(Cc2cn[nH]c2-c2cc3ccccc3o2)C1 (configuration not stated),"inconclusive: 11.2 µM [inhibitor, partial curve, poor fit]",
CC(=O)NC(c1cccs1)c1cc(F)c2cccnc2c1O (configuration not stated),"inconclusive: 25.1 µM [inhibitor, single point]",
COc1ccc2nc3sc(C(=O)Nc4cc(Cl)c(OC)cc4OC)cc3cc2c1,"inconclusive: 5.62 µM [inhibitor, single point]",
S=C(Nc1ccc(N2CCOCC2)cc1)Nc1ccc2nc(-c3ccco3)c(-c3ccco3)nc2c1,,inactive: -24.2%
CCOc1cc(N(CC)CC)ccc1/C=C(/C#N)c1nc2ccccc2[nH]1,"inconclusive: 3.16 µM [inhibitor, partial curve, poor fit]",
CCN1C(=O)/C(=C2/SC(C)=C(C)N2CC)SC1=S,"inconclusive: 35.5 µM [inhibitor, single point]",

SMILES,Potency,"activity, negative = active"
Cc1cccn2c(=O)c3cc(C#N)c(=NC(=O)c4ccccc4)n(Cc4ccco4)c3nc12,inactive,
N#C/C(=C\c1ccc(N2CCOCC2)o1)C(=O)Nc1ccc(O)cc1,"inconclusive: 3.55 µM [inhibitor, partial curve, poor fit]",
Cc1nc(SCC(=O)c2ccccc2)c(C#N)c(-c2ccco2)c1C(=O)NCc1ccco1,"inconclusive: 15.8 µM [inhibitor, partial curve, poor fit]",
COC(=O)c1ccc(NC(=O)CN2C(=O)CSC2=O)cc1,,inactive: 1.98%
CCC(COC)Oc1cc(NCc2ccccc2)c2ncn(C(C)C)c2c1 (configuration not stated),"inconclusive: 20 µM [inhibitor, partial curve, poor fit]",
Cc1ccccc1-c1cc(=O)c2ccccc2o1,"inconclusive: 15.8 µM [inhibitor, single point]",
CCCN(CCC)S(=O)(=O)c1ccc(C(=O)NNC(=O)c2cc(OC)c(OC)c(OC)c2)cc1,"inconclusive: 20 µM [inhibitor, single point]",
CCCN(C)C[C@@H]1OCCCC[C@@H](C)Oc2ccc(NC(=O)c3ccccc3)cc2C(=O)N([C@H](C)CO)C[C@@H]1C,"inconclusive: 14.1 µM [inhibitor, single point]",
COc1cc(/C=C/C(=O)c2ccc3c(c2)OCCO3)cc(Br)c1OCC(=O)N(C)C,"inconclusive: 15.8 µM [inhibitor, partial curve, poor fit]",
Cc1ccc(S(=O)(=O)c2c(Nc3cccc(Cl)c3)sc(C(=O)c3ccc4c(c3)OCO4)c2N)cc1,"inconclusive: 3.16 µM [inhibitor, single point]",
CCC(C)C(=O)OC1CCC=C2C=CC(C)C(CCC3CC(O)CC(=O)O3)C21 (configuration not stated),"inconclusive: 6.31 µM [inhibitor, full curve]",
Cc1ccc(-n2nnnc2-c2cnc3ccc(Cl)cc3c2-c2ccccc2)cc1,,inactive: -27.9%
Cc1ccc(N/C=C2/Sc3ccccc3NC2=O)cc1,"inconclusive: 11.2 µM [inhibitor, partial curve]",
COC(=O)c1c(NC(=O)/C=C/C(=O)O)sc(C)c1-c1ccc(C)cc1,,inactive: -21.8%
O=C(NCc1ccco1)c1ccc([N+](=O)[O-])o1,"inconclusive: 22.4 µM [inhibitor, single point]",
COC(=O)[C@H]1C[C@H](OC(=O)Nc2cccs2)[C@@]2(O)CN(S(=O)(=O)c3ccc(C)cc3)CC2[C@H]1C(=O)OC (some centres not stated),,inactive: 5.73%
O=C(/C=C/c1ccc2ccccc2n1)c1cc(Br)ccc1O,"inconclusive: 10 µM [inhibitor, partial curve, poor fit]",
COc1ccc(-c2oc3cc(O)c(OC)c(O)c3c(=O)c2OC)cc1,"inconclusive: 7.08 µM [inhibitor, full curve]",
CCN(/N=C/c1ccc(Cl)cc1)c1cc(=O)n(C)c(=O)[nH]1,"inconclusive: 5.62 µM [inhibitor, single point]",
Cc1cccc(NC(=O)Cn2cc(C(=O)c3ccco3)c3ccccc32)c1C,"inconclusive: 35.5 µM [inhibitor, single point]",
OC1CCCN(Cc2cn(Cc3ccccc3)nc2-c2cc3ccccc3o2)C1 (configuration not stated),,inactive: 2.6%
Nc1c(-c2ccc(Cl)cc2)cnn1-c1cccc(C(F)(F)F)c1,,inactive: 1.21%
Cc1ccc2[nH]c(C(=O)N/N=C/c3ccc([N+](=O)[O-])cc3)c(C)c2c1,"inconclusive: 4.47 µM [inhibitor, full curve]",

SMILES,Potency,"activity, negative = active"
Cc1cccc(NC(=S)NC(=O)/C=C/c2ccco2)c1,"inconclusive: 1.58 µM [inhibitor, partial curve, poor fit]",
CCc1nc(SCC(=O)Nc2ccc(NC(C)=O)cc2)n[nH]1,,inactive: -0.529%
CCCCC/C(=N\NC(=O)CCC(=O)NCc1ccccc1)c1ccccc1,"inconclusive: 20 µM [inhibitor, single point]",
CC1CCc2sc(C(=O)NN=C3CCC(c4ccccc4)CC3)cc2C1 (configuration not stated),,inactive: 0.446%
COc1cc(-c2noc(C)c2/C=C/c2cccc([N+](=O)[O-])c2)cc(OC)c1OC,"inconclusive: 316 nM [inhibitor, full curve, poor fit] and inconclusive: 1.12 µM [inhibitor, full curve, poor fit]",
CC(Oc1ccc(Br)cc1)C(=O)NC1CCN(Cc2ccccc2)CC1 (configuration not stated),,inactive: 0.997%
Clc1ccc2c(ccc[n+]2CCC2CCCCC2)c1,,inactive: 2.34%
Cc1ccc(S(=O)(=O)N/N=C/c2cccc(OC3CSC3)c2)cc1,"inconclusive: 35.5 µM [inhibitor, partial curve, poor fit]",
COC(=O)c1sc2nc(-c3ccco3)ccc2c1N,,inactive: -4.3%
Cc1ccc2c(nc3s/c(=C/c4cccs4)c(=O)n32)c1C,"inconclusive: 7.94 µM [inhibitor, partial curve, poor fit]",
CCOC(=O)C1=C(C)NC(SC)=C(C#N)C1CC(C)C (configuration not stated),"inconclusive: 2 µM [inhibitor, partial curve, poor fit]",
COc1ccc2[nH]c(C)c(CCNC(=S)Nc3cc(C)ccc3C)c2c1,,inactive: 2.93%
NS(=O)(=O)c1ccc(NCc2cc(Cl)ccc2OCc2ccc(F)cc2)cc1,"inconclusive: 11.2 µM [inhibitor, single point]",
CS(=O)(=O)c1ccc(N)c(SSc2cc(S(C)(=O)=O)ccc2N)c1,,inactive: -5.04%
Cc1cccc(CSc2nc(=O)c3c(n2C)NC(=O)CC3c2cc(F)cc(F)c2)c1 (configuration not stated),"inconclusive: 35.5 µM [inhibitor, single point]",
CCOC(=O)c1[nH]c(C)c(CCC(=O)Nc2ccccc2C(=O)OC)c1C,"inconclusive: 11.2 µM [inhibitor, single point]",
Cc1oc2ncn(C)c(=O)c2c1C(=O)Nc1ccc(F)cc1,,inactive: -5.85%
O=C1NC(=O)/C(=C\c2ccccc2Oc2ccc(F)c(F)c2)S1,"inconclusive: 35.5 µM [inhibitor, single point]",
Cc1cccc(Nc2nc(N)nc(N)c2N=O)c1,,inactive: -4.26%
CN1CCCC1CCNc1ccc2sc3ccccc3c(=O)c2c1 (configuration not stated),"inconclusive: 20 µM [inhibitor, single point]",
COc1ccc(N2CCc3c(C)nc4c(OC)cccc4c32)cc1,"inconclusive: 3.55 µM [inhibitor, partial curve, poor fit]",
